Measurements: US9260505B2, “Methods for screening for binding partners of G-protein coupled receptors” (Heptares Therapeutics Limited, priority 2007, dated 2016)

Key:
[1] = target: T1, βAR34-424 (Meleagris gallopavo, UniProt P07700, C116L)
Protocol: FIGS. 8A and 8B Saturation binding assays of membranes of βAR34-424 and βAR-m23. Binding assays were performed as described in “Methods” using [^3H]-dihydroalprenolol (DHA) as radioligand; βAR34-424 (a) and βAR-m23 (b). Scatchard plots are shown as insets along with the corresponding values for Bmax and KD. Data points are from duplicates of two independent experiments for each protein.
[…] . This is consistent with the observation that none of the mutations in βAR-m23 correspond with amino acids believed to be implicated in ligand binding. […] . From a crystallisation perspective, this is an added bonus to thermostabilisation, because it is essential to have a conformationally homogeneous protein population for the production of diffraction-quality crystals.
Receptors were eluted in 2×100 μl of buffer (0.4 M NaCl, 1 mM EDTA, 250 mM imidazole pH 8, plus the relevant detergent). […] .
Non-specific binding was determined in the presence of 1 μM of s-propranolol. […] .

[2] = Thermostability of detergent-solubilised βAR34-424 and mutants ([3H]-DHA binding after heating 30 min)
[3] = target: T1, βAR34-424; experiment: biochemical; format: binding, turkey

## 1-[4,6-propyl-^3H]-dihydroalprenolol [[^3H]-dihydroalprenolol]
[1]; membranes, n=2
  Kd: 2.8 ± 0.1 nM
[1]; semipurified receptor
  Kd: 3.7 nM

## βAR34-424: truncated turkey β1 adrenergic receptor, residues 34-424, C116L, C-terminal His10; parent receptor
[2]; antagonist bound versus without antagonist
  increase in Tm with bound antagonist: 6 °C
[2]; apo-state heated 30 min, E. coli expressed, DDM-solubilised, mean ± S.E. from duplicates
  Tm: 31.7 ± 0.1 °C
[2]; in NG, extrapolated from about 20° C. difference
  predicted Tm: about 5 °C
[2]; resin washed with OG, NG or LDAO
  active receptor eluting from resin: no active receptors

## C=CCc1ccccc1OC[C@@H](O)CNC(C)C [alprenolol]
[3]
  EC50: 78 nM

Where two headings read alike, the source gives them in different places.
